Assay results as given in PubChem BioAssay AID504332 (National Center for Advancing Translational Sciences (NCATS), 2011).
Among all 350,000 compounds or so, about 31,000 (8.9%) were called active. This list was built around the results that the source calls inconclusive (neither active nor inactive); the mix of calls is not that of the screen. The call rests on the fitted dose curve; in most records, active means well fitted inhibition curve with a large enough effect; inconclusive means small, poorly fitted or top-dose-only effect; inactive means no such curve, though single readings can be large or run the other way. Where the call is inconclusive, the potency comes from a doubtful curve fit.

molecular target: Histone-lysine N-methyltransferase EHMT2 (Homo sapiens) (UniProt Q96KQ7); experiment: qHTS Assay for Inhibitors of Histone Lysine Methyltransferase G9a; settings: G9a H3K9 monomethylation, AlphaScreen, 2 h; activity, negative = inhibition: at 59 µM (top of the series) unless noted; further: nearly all actives have a fitted effect of over 75% in size
In short: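 AlphaScreen detection with an anti-monomethyl H3K9 antibody quantified product after a 2 h room-temperature reaction containing 500 nM biotinylated H3K9 peptide, 20 µM SAM and 20 nM enzyme, which had been preincubated 15 min with compound.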
On the % scale 0 is the no-effect control and ±100 the full control effect; potency means the concentration at half of the fitted maximal effect; tags describe the fitted curve by direction and shape.

Sequence of UniProt Q96KQ7 (Q96KQ7 whole entry, looked up): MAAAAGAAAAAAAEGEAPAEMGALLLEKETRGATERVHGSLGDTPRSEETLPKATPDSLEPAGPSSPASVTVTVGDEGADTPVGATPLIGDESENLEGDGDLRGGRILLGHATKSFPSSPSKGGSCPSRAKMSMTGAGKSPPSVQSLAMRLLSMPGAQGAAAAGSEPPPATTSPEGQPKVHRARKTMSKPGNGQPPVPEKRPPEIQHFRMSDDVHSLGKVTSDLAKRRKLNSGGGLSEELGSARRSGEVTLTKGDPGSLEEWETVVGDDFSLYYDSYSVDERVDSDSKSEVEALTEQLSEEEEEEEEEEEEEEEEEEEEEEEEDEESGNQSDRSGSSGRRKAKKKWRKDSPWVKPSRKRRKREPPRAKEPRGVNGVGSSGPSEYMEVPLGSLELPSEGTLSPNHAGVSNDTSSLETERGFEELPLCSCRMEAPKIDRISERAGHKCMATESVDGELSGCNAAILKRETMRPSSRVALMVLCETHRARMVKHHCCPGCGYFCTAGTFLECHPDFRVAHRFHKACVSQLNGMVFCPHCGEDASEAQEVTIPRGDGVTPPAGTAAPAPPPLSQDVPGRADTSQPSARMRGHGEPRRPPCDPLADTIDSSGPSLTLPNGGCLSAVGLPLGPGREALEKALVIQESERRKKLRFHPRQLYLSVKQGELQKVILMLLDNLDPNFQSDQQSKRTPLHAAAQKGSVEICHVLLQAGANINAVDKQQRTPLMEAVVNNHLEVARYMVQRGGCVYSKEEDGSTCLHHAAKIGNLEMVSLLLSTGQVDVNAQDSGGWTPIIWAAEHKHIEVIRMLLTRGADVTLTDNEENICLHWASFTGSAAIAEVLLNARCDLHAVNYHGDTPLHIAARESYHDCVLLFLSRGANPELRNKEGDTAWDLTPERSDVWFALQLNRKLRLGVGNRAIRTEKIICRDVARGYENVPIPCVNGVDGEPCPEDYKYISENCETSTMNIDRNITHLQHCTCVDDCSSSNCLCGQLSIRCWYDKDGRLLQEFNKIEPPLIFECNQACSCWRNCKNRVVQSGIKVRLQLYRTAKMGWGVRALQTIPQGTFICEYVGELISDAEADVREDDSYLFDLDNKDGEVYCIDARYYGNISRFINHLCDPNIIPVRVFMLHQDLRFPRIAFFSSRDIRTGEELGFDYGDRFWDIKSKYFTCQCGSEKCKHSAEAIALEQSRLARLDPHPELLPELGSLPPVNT

Compound	Potency	activity, negative = inhibition
O=C(OC1CCCCC1=O)c1cccc(S(=O)(=O)N2CCCCC2)c1 (stereo not given)	inconclusive: 44.7 µM [inhibitor, partial curve, poor fit]	–
c1ccc(-c2ccccc2OCCOCCN2CCCCC2)cc1	inconclusive: 8.91 µM [inhibitor, full curve, poor fit]	–
C=CCSC(=C(C#N)C#N)c1cc2c([nH]1)CCCC2	–	inactive: -47.9% [at 12.7 µM]
Cc1cccc(NC(=O)c2cc(-c3c(C)cc(C)cc3O)n[nH]2)c1	inactive	–
Cc1ccc(-n2c(=O)cc(N3CC(C)OC(C)C3)[nH]c2=O)cc1 (stereo not given)	inconclusive: 89.1 µM [inhibitor, partial curve, poor fit]	–
N#CCC(=O)Nc1ccc(C(=O)OCC(=O)NC2CCCCCC2)cc1	inconclusive: 0.316 µM [inhibitor, partial curve, poor fit]	–
O=C1CN(C(=O)c2ccc(S(=O)(=O)N3CCCCC3)cc2)C(c2ccc(F)cc2)c2cc(Br)ccc2N1 (stereo not given)	inconclusive: 8.91 µM [inhibitor, partial curve]	–
CCCc1nc(SCC(=O)c2ccc(OC)cc2)c2ccccc2n1	inconclusive: 50.1 µM [inhibitor, partial curve]	–
Cc1[nH]c(=O)[nH]c(=O)c1Sc1ccccc1[N+](=O)[O-]	active: 56.2 µM	–
CO/N=C/C=C1/N(C)c2ccccc2C1(C)C	active: 50.1 µM	–
Cc1ccccc1NC(=O)CN1CCN(Cc2ccccc2)CC1	inactive	–
O=c1[nH]nc(Sc2ncnc3sccc23)n1CCc1ccccc1	active: 39.8 µM	–
CCN(CC(=O)Nc1cccc(C(C)=O)c1)S(=O)(=O)c1ccc(OC)cc1	inactive	–
Cc1ccc(N2CCC(N3CCN(C4CCCCC4)C(CCO)C3)CC2)cc1 (stereo not given)	inconclusive: 31.6 µM [inhibitor, partial curve, poor fit]	–
COc1ccc(-c2nc3sc(CCNC(=O)C(=O)Nc4ccccc4C#N)c(C)n3n2)cc1	inactive	–
CCCCCSc1nnc2c(n1)OC(c1cccn1C)N(C(C)=O)c1ccccc1-2 (stereo not given)	inconclusive: 11.2 µM [inhibitor, partial curve, poor fit]	–
COC(=O)C1CCN(C(=O)COC(=O)c2ccc(OC)c(S(=O)(=O)N3CCCc4ccccc43)c2)CC1	active: 79.4 µM	–
S=C1NC2(CCCCC2)NN1c1ccccc1	active: 14.1 µM	–
COc1ccc(/C=C/C(=O)Nc2ccc(-n3nncc3-c3ccccc3)cc2)cc1OC	active: 44.7 µM	–
Cc1ccccc1-c1ccc2ncnc(-n3ccnc3)c2c1	–	inactive: -37.1% [at 0.501 µM]
CCOC(=O)c1ccccc1NC(=O)c1c(C)oc2ncnc(N3CCOCC3)c12	inactive	–
COn1c(=S)[nH]c2ccccc2c1=O	inconclusive: 50.1 µM [inhibitor, partial curve, poor fit]	–
Cc1sc2nc(CN3CCOCC3)nc(NS(=O)(=O)c3ccccc3)c2c1C	inconclusive: 3.16 µM [inhibitor, partial curve, poor fit]	–
CN(Cc1ccc2ccccc2c1)C(=O)c1ccc(C(F)(F)F)cc1	inactive	–
C[C@H](NS(=O)(=O)c1ccccc1)C(=O)OCC(=O)NC(=O)Nc1ccc2c(c1)OCCO2	inconclusive: 0.141 µM [inhibitor, full curve, poor fit]	–

Compound	Potency	activity, negative = inhibition
c1ccc(-c2cccc(-c3ccccn3)n2)nc1	inactive	–
COCCCNCCOc1ccc(C(C)(C)c2ccccc2)cc1	active: 20 µM	–
COCCCNC(=O)c1ccc(Cn2c(=O)c3ccccc3n(Cc3ccc(Cl)cc3)c2=O)cc1	inactive	–
CC(C)N(Cc1ccccc1)C(=S)Nc1ccc(F)cc1	inactive	–
CCN1CCN(C(=O)c2cc(COc3ccc4ncccc4c3)on2)CC1	inconclusive: 50.1 µM [inhibitor, partial curve]	–
CC(NC(=O)C(=O)Nc1nccs1)c1ccccc1 (stereo not given)	active: 50.1 µM	–
Cc1sc(NC(=O)CCCC(=O)O)c(C(N)=O)c1-c1ccccc1	active: 25.1 µM	–
O=C(Cn1nnc(-c2ccccc2F)n1)OCC(=O)c1ccccc1	inconclusive: 79.4 µM [inhibitor, single point]	–
O=C(CCn1c(=O)c2ccccc2n(CC(=O)Nc2ccc(F)cc2)c1=O)NCCc1ccccc1	inactive	–
COc1ccccc1C(=O)NNC(=O)c1ccc(NS(=O)(=O)c2cccs2)cc1	inactive	–
Cc1cc(C)c(-n2c(O)c(C=NCCN3CCOCC3)c(=O)[nH]c2=O)c(C)c1	inactive	–
CC(=O)N1c2ccccc2N(Cc2ccc([N+](=O)[O-])cc2)C(=O)C1(C)C	inactive	–
O=C(NCc1ccco1)c1cc2cc(Br)ccc2o1	active: 8.91 µM	–
CCOc1ccccc1NC(=O)C1=C(C)Nc2ncnn2C1c1ccco1 (stereo not given)	inactive	–
CNc1ncnc2c1ncn2[C@H]1C[C@H](O)[C@@H](CO)O1	inactive	–
CC(=Nc1ccccc1C(F)(F)F)c1ccncc1	–	inactive: -30% [at 2.33 µM]
COc1cc(NC(=O)c2nn(C)c3c2COc2ccccc2-3)cc(OC)c1OC	inconclusive: 39.8 µM [inhibitor, partial curve, poor fit]	–
COc1ccc(Cc2nc3ccc(C(=O)N4CCCCC4CCO)cc3o2)cc1 (stereo not given)	inactive	–
C/C(CC(=O)Nc1ccc(N(C)C)cc1)=N\NC(=O)c1ccncc1	active: 35.5 µM	–
C#CCNC(=O)C1=C[C@@H](c2cn(C(C)=O)c3ccccc23)C[C@@H](OCc2ccc(CO)cc2)O1	–	inconclusive: -76.5% [inhibitor]
O=C(Nc1ccc2snnc2c1)Nc1cccc2ccccc12	active: 50.1 µM	–
COc1cccc(-c2nn(C)c3sc(C(=O)NCc4ccc(OC)cc4OC)cc23)c1	inconclusive: 8.91 µM [inhibitor, partial curve, poor fit]	–
CC(C)c1cccc(OCCN2CCCC2)c1	active: 31.6 µM	–
Cc1ccc(CNC(=O)c2c(Nc3ccccc3C)sc(C(=O)c3ccc(F)cc3)c2N)cc1	inconclusive: 25.1 µM [inhibitor, single point]	–
CC(=O)c1cccc(NC(=O)Cc2ccc3c(c2)CCCC3)c1	inconclusive: 63.1 µM [inhibitor, single point]	–
